Source: the supplement of paper PMC12645437, “Orthogonal IMiD-Degron Pairs Induce Selective Protein Degradation in Cells” (ACS Chemical Biology, 2025)
This is one part of the list.

B1: Q9UKT9 (peptide)
chain: FECEICGRCFTQKGNLLRHIKL
B2: Q9UKT9 (peptide)
chain: FLCNQCGAWFTQKGNLLRHIKL
B3: Q9UKT9 (peptide)
chain: LGCPICGFDCTQKGNLLRHIKL
B4: Q9UKT9 (peptide)
chain: FLCDICGAMFTQKGNLLRHIKL
B5: Q9UKT9 (peptide)
chain: FRCPICGHAFTQKGNLLRHIKL
B6: Q9UKT9 (peptide)
chain: FVCPICGRAFTQKGNLLRHIKL
B7: Q9UKT9 (peptide)
chain: FQCPVCGAIFTQKGNLLRHIKL
B8: Q9UKT9 (peptide)
chain: FWCDVCGAVFTQKGNLLRHIKL
B9: Q9UKT9 (peptide)
chain: FDCNQCGRCFTQKGNLLRHIKL
B10: Q9UKT9 (peptide)
chain: FFCPQCGAHFTQKGNLLRHIKL
B11: Q9UKT9 (peptide)
chain: FICPICGRMFTQKGNLLRHIKL
B12: Q9UKT9 (peptide)
chain: FFCPQCGAVFTQKGNLLRHIKL
B13: Q9UKT9 (peptide)
chain: FGCEICGHMFTQKGNLLRHIKL
B14: Q9UKT9 (peptide)
chain: FYCNQCGRIFTQKGNLLRHIKL
B15: Q9UKT9 (peptide)
chain: FHCNVCGAPFTQKGNLLRHIKL
B16: Q9UKT9 (peptide)
chain: FECDICGAGFTQKGNLLRHIKL
B17: Q9UKT9 (peptide)
chain: FQCNQCGAKFTQKGNLLRHIKL
B18: Q9UKT9 (peptide)
chain: FECDQCGAYFTQKGNLLRHIKL
B19: Q9UKT9 (peptide)
chain: LFCEICGFYCTQKGNLLRHIKL
B20: Q9UKT9 (peptide)
chain: LICNQCGFNCTQKGNLLRHIKL
B21: Q9UKT9 (peptide)
chain: LRCNQCGFVCTQKGNLLRHIKL
B22: Q9UKT9 (peptide)
chain: FLCPVCGAGFTQKGNLLRHIKL
B23: Q9UKT9 (peptide)
chain: LWCEICGFCCTQKGNLLRHIKL
B24: Q9UKT9 (peptide)
chain: FCCEQCGAQFTQKGNLLRHIKL
B25: Q9UKT9 (peptide)
chain: FWCDICGANFTQKGNLLRHIKL
B26: Q9UKT9 (peptide)
chain: LICEICGFECTQKGNLLRHIKL
B27: Q9UKT9 (peptide)
chain: FICNICGAKFTQKGNLLRHIKL
B28: Q9UKT9 (peptide)
chain: FGCPICGHAFTQKGNLLRHIKL
B29: Q9UKT9 (peptide)
chain: FICNICGALFTQKGNLLRHIKL
B30: Q9UKT9 (peptide)
chain: FRCEICGHWFTQKGNLLRHIKL
B31: Q9UKT9 (peptide)
chain: FRCNICGAMFTQKGNLLRHIKL
B32: Q9UKT9 (peptide)
chain: FVCNQCGRLFTQKGNLLRHIKL

Target: no compound (DMSO)
Assay: log2 fold change of degron read counts, EGFP-low vs EGFP+ sorted cells; higher = lower degron-EGFP level without compound (poor expression or instability)
Details: compound: DMSO control; 18 h
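Further: jurkat cells carrying a lentiviral library of mutant zinc finger degrons fused to EGFP plus mCherry, mCherry+ cells FACS sorted, degron abundance counted by next-generation sequencing.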

Sequence | log2 fold change of degron read counts
B1 | -2.02
B2 | 0.549
B3 | 0.0768
B4 | -1.19
B5 | -0.476
B6 | -0.423
B7 | -0.393
B8 | 0.0936
B9 | 0.128
B10 | 0.35
B11 | 0.451
B12 | 0.293
B13 | -0.162
B14 | 1.13
B15 | -0.425
B16 | -2.46

Sequence | log2 fold change of degron read counts
B17 | -1.09
B18 | -1.05
B19 | 1.46
B20 | 0.48
B21 | 0.937
B22 | -0.286
B23 | 1.47
B24 | -1.75
B25 | -0.508
B26 | -1.55
B27 | -1.12
B28 | -0.592
B29 | 0.407
B30 | -0.659
B31 | -0.644
B32 | 0.167
